# Experimental data reported in PubChem BioAssay AID624417 (National Center for Advancing Translational Sciences (NCATS), 2012).
# Out of some 410,000 compounds screened, about 6,400 (1.6%) were called active. This list was built around the results that the source calls inconclusive (neither active nor inactive); the mix of calls is not that of the screen. The call rests on the fitted dose curve; in most records, active means well fitted inhibition curve with a large enough effect; inconclusive means small, poorly fitted or top-dose-only effect; inactive means no such curve, though single readings can be large or run the other way. Potencies of inconclusive entries are left out as doubtful fits.
# Biological target: Glucagon-like peptide 1 receptor (Homo sapiens) (UniProt P43220)
# Assay: qHTS of GLP-1 Receptor Inverse Agonists (Inhibition Mode); further: nearly all actives have a fitted effect of over 55% in size
# Conditions: HEK293 GLP-1R CRE-luciferase, luminescence, 24 h, GLP-1R form is constitutively active; activity change, negative = inhibition: at 38.3 µM (top of the series) unless noted
# Procedure, shortened: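 Cells are plated, allowed 12 hours at 37 deg C, then treated with compounds for 24 hr before luciferase detection reagent is added and luminescence is read after 12 min at room temperature. The HEK293 line carries constitutively active GLP-1R with a cAMP-responsive reporter.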
# On the % scale 0 is the no-effect control and ±100 the full control effect; potency means the concentration at half of the fitted maximal effect; tags describe the fitted curve by direction and shape.
# UniProt P43220, sequence (P43220 whole entry, looked up): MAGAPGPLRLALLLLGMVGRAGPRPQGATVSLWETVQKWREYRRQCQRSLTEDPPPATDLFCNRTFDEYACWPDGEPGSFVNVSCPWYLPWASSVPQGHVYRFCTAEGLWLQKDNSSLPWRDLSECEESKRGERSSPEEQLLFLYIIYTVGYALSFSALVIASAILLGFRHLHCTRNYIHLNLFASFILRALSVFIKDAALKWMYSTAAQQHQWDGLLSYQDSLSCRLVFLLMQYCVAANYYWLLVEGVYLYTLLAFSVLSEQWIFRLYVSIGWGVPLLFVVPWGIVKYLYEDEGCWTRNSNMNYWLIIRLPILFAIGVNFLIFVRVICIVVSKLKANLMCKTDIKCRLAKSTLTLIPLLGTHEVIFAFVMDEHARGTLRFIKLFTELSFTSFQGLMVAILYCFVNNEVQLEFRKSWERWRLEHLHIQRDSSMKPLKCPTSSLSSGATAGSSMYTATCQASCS
Structure (SMILES),"activity change, negative = inhibition",Potency
Cc1cccc(CN2CCN(C3CN(C4CCCC4)S(=O)(=O)C3)CC2)c1 (stereo not drawn),inactive: -16.2%,
S=C(NCc1ccco1)NCC(c1ccco1)N1CCCCC1 (stereo not drawn),,"inconclusive [inhibitor, partial curve, poor fit]"
CCO[C@@H]1OC(C(=O)NCc2ccccc2)=C[C@H](c2ccccc2)[C@H]1CCCO,,"inconclusive [inhibitor, partial curve, poor fit]"
CCN1CCN(c2oc(-c3ccccc3)nc2S(=O)(=O)c2ccc(C)cc2)CC1,,"inconclusive [inhibitor, single point]"
N#Cc1ccc(C(=O)Nc2ccc3c(c2)N(C2CCCC2)C(=O)c2ccccc2S3)cc1,,"inconclusive [inhibitor, partial curve, poor fit]"
Cc1ccc(C)c(C(C)NC(=O)C2CCCC2)c1 (stereo not drawn),inactive: -18.5%,
O=C(COc1ccccc1)Nc1nnc(-c2ccc(F)cc2)o1,inactive: 12.9%,
Cc1ccc(SCC2(O)CCN(C(=O)c3ccc(Cl)cc3)CC2)cc1,,"inconclusive [inhibitor, single point]"
Cc1ccc(Cn2c(CN3CCC(C(=O)NCCc4ccccc4)CC3)cc3ccccc32)cc1,,"inconclusive [inhibitor, single point]"
Cc1cc(Cl)c2oc(C(=O)N3CCC(O)(c4ccccc4)CC3)c(C)c2c1,,"inconclusive [inhibitor, single point]"
CC(C)C[C@@H](CN1CCCC1CN1C(=S)NC[C@@H]1Cc1ccc(O)cc1)N1C[C@H](Cc2ccccc2)N(CC2CCCCC2)C1=S (stereo partly drawn),,"inconclusive [inhibitor, partial curve, poor fit]"
CCN(CC)C(=O)c1sc2c(c1C)c(=O)n(-c1ccc(OC)cc1OC)c(=O)n2CC(=O)c1ccc(Cl)cc1,inactive: -3.02%,
CCn1cc(S(=O)(=O)c2ccccc2)c(=O)c2cc(F)c(N3CCN(c4ccccc4)CC3)cc21,inactive: 10.2%,
S=C(NCc1ccncc1)Nc1ccc(Cl)cc1Cl,inactive: -16%,
Cc1csc(N2CCN(c3cc4c(cc3Cl)nc(-c3ccncc3)n4CCCN3CCCC3)CC2)n1,,"inconclusive [inhibitor, single point]"
Cc1ccc(NC(=S)NC2CC3CCC(C2)N3Cc2ccco2)cc1C (stereo not drawn),inactive: -14.4%,
CCOc1ccccc1/C=C/c1onc(C)c1S(=O)(=O)N1CCC(C(=O)N2CCCCCC2)CC1,,"inconclusive [inhibitor, single point]"
CCOC(=O)c1cc2sc(C)cc2n1CC(=O)Nc1cccc(C)c1C,,"inconclusive [inhibitor, partial curve, poor fit]"
